Results: the supplement of paper PMC7726561
Whole data set: some 1,100 sequences, median “thermal melting temperature (Tm) of peptide-HLA complex” near 58, cut for the lowest 2% near 42. This is one part of the list.

These sequences were tested against HLA-A*02:01 (assay: thermal melting temperature (Tm) of peptide-HLA complex; higher = more thermostable pHLA complex). Details: C1R-A*02:01.
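Note: cell lysates heated 10 min at 37–73 °C, remaining pHLA pulled down with pan-class I antibody, peptides quantified by DIA-MS versus 37 °C, Tm where half the complex is lost.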

Sequence | thermal melting temperature
SLLDGVVEKL | 55.5 °C
LLSDTVQHL | 56.5 °C
YQLELRTTL | 54.7 °C
NLLESVQRL | 49.5 °C
HLFETISQA | 54.9 °C
QLQDFDWQV | 59.5 °C
FILPHISTA | 55.7 °C
VLHELTFQA | 60.4 °C
SLIAGVIRV | 60.1 °C
SVYPNGHFV | 53 °C
QLLTAIVKL | 53.4 °C
QLSDVAEKL | 56.1 °C
TLFDYEVRL | 62.7 °C
LLKDSIVQL | 47.9 °C
TTFDKEFLL | 54.4 °C
FLIGDEAATHL | 47.4 °C
SLHDAIMIV | 54.4 °C
ALFPAPLAQI | 62.7 °C
VLFGVETHV | 60.4 °C

Sequence | thermal melting temperature
SLADIAQKL | 56.7 °C
RLIQESPTL | 60.4 °C
FLVEHVLTL | 52 °C
ALSDHHIYL | 63.2 °C
FVADGIFKA | 41.1 °C
AMFESSQNVLL | 56.1 °C
VLDEEIAKA | 40.7 °C
RVISELQEA | 40.7 °C
ELMEQVPHI | 48.9 °C
FLQPGGYHV | 58.9 °C
KMDEVLYSI | 59 °C
RLQDELVTL | 63.1 °C
RQIEYYFSV | 61.3 °C
KMFESFIESV | 58.8 °C
QLQDTLIHL | 57.2 °C
ILTDITKGV | 60.9 °C
ALLDGRVQL | 61.3 °C
GTIGLIHAV | 55.5 °C
SLLPFLKAV | 61.9 °C

Sequence | thermal melting temperature
SMSADVPLV | 61.3 °C
TMADQIVTV | 58 °C
ALDKATVLL | 58 °C
NLVPMIIHL | 51.3 °C
ALITRIFGV | 63.6 °C
LLHDGIPVV | 62.2 °C
SLLSHVEQL | 61.3 °C
VLLSDSNLHDA | 50 °C
VLAENPDIFAV | 58.7 °C
FLIRESETL | 56.2 °C
SLAGDVALQQL | 56 °C
FIINGIEKV | 58.8 °C
ALAEALKEV | 62 °C
RVADVIAQV | 60.2 °C
ILQDEQYLM | 54.9 °C
GLLTEIRAV | 62.6 °C
YIAEEYSRL | 49.5 °C
SLYDWNVKL | 50.3 °C
